Data taken from the supplement of paper PMC4604168 (melanoma cell lines).
The other results are listed elsewhere or left out. Repeats are few or missing, and single values can be far off.

Experiments:
Test in all cases: cell count relative to DMSO control; melanoma cells; higher = more viable cells
Conditions in all cases: library dose: low library concentration; 72 h
[1] = test system: COLO792
[2] = test system: COLO800
[3] = test system: COLO829
[4] = test system: G361
[5] = test system: IPC-298
[6] = test system: IST-MEL1
[7] = test system: LB2518-MEL
[8] = test system: LOXIMVI
[9] = test system: MEL-HO
[10] = test system: MZ2-MEL
[11] = test system: MeWo
[12] = test system: RPMI7951
[13] = test system: RVH-421
[14] = test system: SkMel28
[15] = test system: SkMel2
[16] = test system: SkMel30
[17] = test system: SkMel5
[18] = test system: UACC257
[19] = test system: UACC62
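Further: cell number obtained by counting DAPI-stained nuclei in high-throughput microscope images with image analysis software, screen run in 1,536-well plates.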

SMILES | cell count [1] [%] | cell count [2] [%] | cell count [3] [%] | cell count [4] [%] | cell count [5] [%] | cell count [6] [%] | cell count [7] [%] | cell count [8] [%] | cell count [9] [%] | cell count [10] [%] | cell count [11] [%] | cell count [12] [%] | cell count [13] [%] | cell count [14] [%] | cell count [15] [%] | cell count [16] [%] | cell count [17] [%] | cell count [18] [%] | cell count [19] [%]
O=C(/C=C/c1cccnc1)NCCCCC1CCN(C(=O)c2ccccc2)CC1 + Cc1cc(N2CCOCC2)cc2[nH]c(-c3c(NC[C@@H](O)c4cccc(Cl)c4)cc[nH]c3=O)nc12 [BMS536924] (first compound 0.01 µM, partner dose 0.2 µM) | 50 | 13.3 | 75.1 | 10.8 | 38 | 69.7 | 78.4 | 65.5 | 36.4 | 47.5 | 103 | 128 | 37.8 | 80.6 | 50 | 86.2 | 87.8 | 81.2 | 90
CC1(C)CCC(c2ccc(Cl)cc2)=C(CN2CCN(c3ccc(C(=O)NS(=O)(=O)c4ccc(N[C@H](CCN5CCOCC5)CSc5ccccc5)c(S(=O)(=O)C(F)(F)F)c4)cc3)CC2)C1 + COc1cc(N2CCC(N3CCN(C)CC3)CC2)ccc1Nc1ncc(Cl)c(Nc2ccccc2S(=O)(=O)C(C)C)n1 [NVP-TAE684] (first compound 0.4 µM, partner dose 0.08 µM) | 64.1 | 54 | 119 | 88.2 | 98.1 | 73.2 | 120 | 61.7 | 76.3 | 101 | 50 | 55.8 | 61.6 | 89.2 | 81.7 | 54.4 | 45.1 | 35.5 | 104
Cc1ccc(Nc2nccc(N(C)c3ccc4c(C)n(C)nc4c3)n2)cc1S(N)(=O)=O [Pazopanib] + COc1ccc2c(c1)CCC1C2CCC2(C)C(NCCCCCCN3C(=O)C=CC3=O)CCC12 [U73122] (first compound 0.4 µM, partner dose 0.4 µM) | 96.3 | 105 | 113 | 89 | 84.6 | 98.6 | 87.8 | 91.9 | 90.4 | 73.4 | 108 | 76.5 | 102 | 93.6 | 113 | 85.1 | 87 | 90.7 | 90.3
CC1(C)CCC(c2ccc(Cl)cc2)=C(CN2CCN(c3ccc(C(=O)NS(=O)(=O)c4ccc(N[C@H](CCN5CCOCC5)CSc5ccccc5)c(S(=O)(=O)C(F)(F)F)c4)cc3)CC2)C1 + COc1ccc(-c2ccc3c(N4CCOCC4)nc(N4C[C@@H](C)O[C@@H](C)C4)nc3n2)cc1CO [KU0063794] (first compound 0.4 µM, partner dose 0.02 µM) | 48.8 | 71.1 | 92.4 | 87.1 | 91.8 | 78 | 79 | 36.2 | 76.3 | 87 | 72.6 | 51.8 | 68.6 | 84.2 | 76.1 | 59.3 | 78.5 | 76.6 | 79.9
O=C(/C=C/c1cccnc1)NCCCCC1CCN(C(=O)c2ccccc2)CC1 + COc1ccc2c(c1)CCC1C2CCC2(C)C(NCCCCCCN3C(=O)C=CC3=O)CCC12 [U73122] (first compound 0.01 µM, partner dose 0.4 µM) | 49.7 | 23.1 | 69.7 | 8.12 | 43.1 | 70.3 | 79.2 | 91.1 | 44.4 | 46.8 | 101 | 89.3 | 47 | 87 | 42.1 | 82.6 | 88.2 | 90.3 | 99.2
O=C(/C=C/c1cccnc1)NCCCCC1CCN(C(=O)c2ccccc2)CC1 + c1cc(-c2cnn3cc(-c4ccc(OCCN5CCCCC5)cc4)cnc23)ccn1 [Dorsomorphin] (first compound 0.01 µM, partner dose 0.4 µM) | 62.5 | 25.8 | 89.2 | 14.3 | 43.5 | 77.1 | 98.9 | 77 | 62.7 | 44.1 | 96.4 | 108 | 52.9 | 92.3 | 54.3 | 102 | 94.9 | 96.6 | 94.8
Cc1ccc(Nc2nccc(N(C)c3ccc4c(C)n(C)nc4c3)n2)cc1S(N)(=O)=O [Pazopanib] + COc1cc(Nc2ncc(F)c(Nc3ccc4c(n3)NC(=O)C(C)(C)O4)n2)cc(OC)c1OC [Tamatinib] (first compound 0.4 µM, partner dose 0.4 µM) | 61.4 | 67.4 | 82.9 | 84.7 | 66.2 | 100 | 79.4 | 96.5 | 87 | 82.9 | 89.4 | 71.5 | 91 | 74.5 | 99.5 | 76.2 | 79.1 | 70.6 | 83.8
CC1(C)CCC(c2ccc(Cl)cc2)=C(CN2CCN(c3ccc(C(=O)NS(=O)(=O)c4ccc(N[C@H](CCN5CCOCC5)CSc5ccccc5)c(S(=O)(=O)C(F)(F)F)c4)cc3)CC2)C1 + O=C(Nc1ccccc1)c1cc([N+](=O)[O-])ccc1Cl [GW9662] (first compound 0.4 µM, partner dose 2 µM) | 76.6 | 52.2 | 91.1 | 91.5 | 102 | 69.1 | 83.4 | 52.5 | 94.3 | 96.4 | 67.9 | 53.9 | 67.8 | 98.9 | 80 | 71.5 | 65.4 | 66.4 | 83.4
CC1(C)CCC(c2ccc(Cl)cc2)=C(CN2CCN(c3ccc(C(=O)NS(=O)(=O)c4ccc(N[C@H](CCN5CCOCC5)CSc5ccccc5)c(S(=O)(=O)C(F)(F)F)c4)cc3)CC2)C1 + C[C@@H]1CCN(C(=O)CC#N)C[C@@H]1N(C)c1ncnc2[nH]ccc12 [CP690550] (first compound 0.4 µM, partner dose 1 µM) | 60.8 | 65.4 | 103 | 87.9 | 90.7 | 75.8 | 89.8 | 55.7 | 78.4 | 94.1 | 75.1 | 71.7 | 81.5 | 101 | 88.9 | 67.5 | 71.1 | 84.6 | 104
Cc1ccc(Nc2nccc(N(C)c3ccc4c(C)n(C)nc4c3)n2)cc1S(N)(=O)=O [Pazopanib] + O=C(O)C(=O)Nc1sc2c(c1C(=O)O)CCNC2 [TCS401] (first compound 0.4 µM, partner dose 1.66667 µM) | 95.9 | 115 | 89 | 94.2 | 75.7 | 111 | 100 | 96.7 | 95.3 | 73 | 116 | 90.8 | 102 | 90 | 114 | 104 | 82 | 88.3 | 108
CC1(C)CCC(c2ccc(Cl)cc2)=C(CN2CCN(c3ccc(C(=O)NS(=O)(=O)c4ccc(N[C@H](CCN5CCOCC5)CSc5ccccc5)c(S(=O)(=O)C(F)(F)F)c4)cc3)CC2)C1 + O=C(O)C(=O)Nc1sc2c(c1C(=O)O)CCNC2 [TCS401] (first compound 0.4 µM, partner dose 1.66667 µM) | 42.7 | 72.2 | 122 | 70.6 | 109 | 69.5 | 94 | 55.8 | 73.5 | 93.6 | 72.1 | 60.7 | 62.2 | 115 | 86.8 | 63.2 | 63.4 | 68.7 | 94.7
CC1(C)CCC(c2ccc(Cl)cc2)=C(CN2CCN(c3ccc(C(=O)NS(=O)(=O)c4ccc(N[C@H](CCN5CCOCC5)CSc5ccccc5)c(S(=O)(=O)C(F)(F)F)c4)cc3)CC2)C1 + Oc1cc(-c2nc(-c3ccccc3)[nH]c2-c2ccncc2)ccc1Cl [L779450] (first compound 0.4 µM, partner dose 0.2 µM) | 77.2 | 63.3 | 99.2 | 77.5 | 84 | 72.6 | 70.5 | 27.9 | 75.1 | 80.4 | 67.1 | 54.6 | 46.2 | 62.4 | 62.4 | 80 | 59.1 | 61.2 | 64.6
Cc1ccc(Nc2nccc(N(C)c3ccc4c(C)n(C)nc4c3)n2)cc1S(N)(=O)=O [Pazopanib] + CCc1ccc(CCOc2ccc(CC3SC(=O)NC3=O)cc2)nc1 [pioglitazone] (first compound 0.4 µM, partner dose 2 µM) | 113 | 76.5 | 91.5 | 103 | 84.1 | 107 | 110 | 120 | 104 | 68.2 | 116 | 94.4 | 89.7 | 90.8 | 104 | 78.7 | 78.7 | 89.8 | 83.3
O=C(/C=C/c1cccnc1)NCCCCC1CCN(C(=O)c2ccccc2)CC1 + O=S(=O)(c1ccccc1)N(CC(F)(F)F)c1ccc(C(O)(C(F)(F)F)C(F)(F)F)cc1 [T0901317] (first compound 0.01 µM, partner dose 1.4 µM) | 49 | 84.4 | 78.2 | 15.2 | 40.5 | 74 | 81.5 | 51.1 | 39.6 | 41.1 | 93 | 105 | 37.2 | 91.7 | 40.4 | 100 | 92.2 | 85.6 | 102
O=C(/C=C/c1cccnc1)NCCCCC1CCN(C(=O)c2ccccc2)CC1 + CC(C)CCN1c2nc(Nc3cc(F)c(O)c(F)c3)ncc2N(C)C(=O)C1C [BID1870] (first compound 0.01 µM, partner dose 0.2 µM) | 53.5 | 25.8 | 43.5 | 9.64 | 39.6 | 66 | 80.9 | 77.7 | 40.8 | 45.8 | 101 | 99.4 | 49.9 | 89.4 | 36.8 | 90.1 | 100 | 76.7 | 71.8
O=C(/C=C/c1cccnc1)NCCCCC1CCN(C(=O)c2ccccc2)CC1 + COc1cc2ncnc(Nc3ccc(Oc4ccccc4)cc3)c2cc1OC [SrcI1] (first compound 0.01 µM, partner dose 2 µM) | 54.4 | 39 | 84.1 | 9.68 | 44.6 | 75.7 | 95.7 | 78.1 | 68.8 | 40 | 111 | 106 | 57.1 | 94.6 | 36.6 | 93.3 | 104 | 120 | 112
O=C(/C=C/c1cccnc1)NCCCCC1CCN(C(=O)c2ccccc2)CC1 + CC(C)(C)c1cnc(CSc2cnc(NC(=O)C3CCNCC3)s2)o1 [SNS-032] (first compound 0.01 µM, partner dose 0.01 µM) | 50 | 25 | 75.6 | 9.96 | 41.8 | 78.6 | 90.3 | 96.5 | 45.9 | 32.6 | 108 | 92.5 | 59.8 | 81.4 | 54.6 | 79.9 | 83.2 | 97.2 | 91
